# In the supplement of paper PMC12632987:
# In all, about 4,500 sequences were measured (“median log2 fold change of GCK-ALFA target abundance (FLAG IP / Myc IP barcode read proportion)”: median about 0.078, lowest 2% from about -0.6 on). Some of the results follow.
# B1: GBRAP_160_4623 (protein)
# chain: SEKLKKAKELLEEEKEFVLSLVPELDTESFAHALETEFGSTILYLLEEGLISEETADKLMEVVDEAVDYLLAHPDLSPEERRALVEETLEKMKEILEEEY
# B2: GBRAP_52_5847 (protein)
# chain: SEERARRLAKELVELRLEGKEEELEKRIKELVETLSEEEVLKILKELAELAKEADEETAEAILEVAELLADKAEEAGFDEDELSYKLAEVAAAAYEKLQK
# B3: GBRAP_125_3084 (protein)
# chain: AVEEALEAAGLILRAAGFSDEEVEDFRRLSADSTVKAIFEALALLLLDEETALKATKLTEEEALAVLKRVAAEIEANPDLTPEQVRALLAEEVEKALAES
# B4: GBRAP_80_6833 (protein)
# chain: AEARLEAGIAEIEKIDPEIAKIVREIVAIARAMGVPLERLTRFVEAILELAKKDKEKARKLVTETLKEVKEAAARGDAAEVAAIIADAESDALLEVEELE
# B5: GBRAP_83_6982 (protein)
# chain: KEKITVVFPGDKIDEAPEIVEDLTKEEGYEVDVEIIADKADIPKVKAMVKEIAKLGIETNIDILLRGATPEEAAALKAELEAIAKAAGVNIKVNVEVEEE
# B6: GBRAP_52_6202 (protein)
# chain: MRERMRKLAEELVELMKAGKREEARALAKEIAETLSEEELKILAEEMARLAEEAKPEDFDTVFEAAEMFAEELLAAGWDEVLADDFLARVAAALYKRELA
# B7: GBRAP_43_5740 (protein)
# chain: MQEWVDGAADFTKLALEDESLTDEQKLKVIADLYRILADSGSKSAKLYEEAAKAIENADTVENLEKAIKLTKEIAEKDPKYADTFKKIAEYLEKLKEKRK
# B8: GBRAP_11_2731 (protein)
# chain: KKEKLKEIARLAEEAAELIAALIAEGPDNAELRARLGERLEELAKLVEEYGDEDLKKLVEIMREEWERALADPANAVAHLERALAAARVLAGQVLLDIEE
# B9: GBRAP_184_5268 (protein)
# chain: KVEEFEIEAKNEEEIKEKLKEIAEKVKDTKADLIIEVDIENPTEEKVKTLMNTLGEIKKAGYASSITVGINNEMSEEVIDLGYELADKYGIKLTVALSEE
# B10: GBRAP_150_3927 (protein)
# chain: SLETLKILTDTLLDYLEAILEGHDELVPHALKLAKAAEEEAEELPEKYRKPILEKLRKIIKLLEEILAGAPEEERKKLKKEALELARELEELVEELLEEE
# B11: GBRAP_11_2853 (protein)
# chain: KKEKLKEIAELAEEAIKLLEELLKKGVDDEELQKKILEKLKELLELVKKYLDEADVKLAEYALESFEKSLKDPENAEEYVNEALAFLRVLLGNVLLEIDE
# B12: GBRAP_52_6339 (protein)
# chain: SEERVRAVAEAIAAAVAAGRLDEAVALTREAAATLSREEVRRMLRLFAELAAERLPDRPDLVMEAAFRIADVVEETLGDEVLADDLEAYTAKLLVERQQA
# B13: GBRAP_125_3119 (protein)
# chain: HMERLLEDLRIVLRALGLDEEDIEEALELARRYGLKGTMIAVAKALGYDEIADLIEQLTEEQVAAAVAEVAEYIRAHPDLTPEEVKALLLEVLRKALEAQ
# B14: GBRAP_52_6119 (protein)
# chain: MKERAEKLVREAFELVKAGRLEEARALLREWAEKANEEEVEEFAEALAELAKEVAPEDADAVWRLAEMAAEALEEAGWPEELVDYLLAKTAAALYELEQK
# B15: GBRAP_14_3848 (protein)
# chain: MEALVKAVDETAADLKEFAADVLPEHADEINAEIDRLAKELKEKIKKEKLNKEEVAELAEEMAARLAAYLAAHGYASDTERAAFRAHLLSTFLLKLEEIE
# B16: GBRAP_80_6754 (protein)
# chain: ARAELEAALAELKALDPELGERLREVLERALAAGVPVATVTRLVRALVELAKLDLEKARELAEETIRRLEEELAAGDLEGATATLIDAESDALLEVEELE
# B17: GBRAP_78_6610 (protein)
# chain: EKKEKIEELLEKAIEKLREIRKKSPEVADLAAEAETLAGTALLQVDTKSESKEEIEETLEEAIKEAKELLKKLEDKDEELQKLAKEALELLEEALKLVKE
# B18: GBRAP_160_4517 (protein)
# chain: SESLEELEKLVDEAAEEVKESIDEESVEEAKVVAAVEYGEVIMEMVEDESFSDEAVDAAAEIGDELVEELKENENASKEELKKIVDEKAKELKEKLKELS
# B19: GBRAP_78_6635 (protein)
# chain: EVEELIDKALEKVSEAAKAALKLPLDLRAEVLDELSDAAVELVEAEEGEDKEEELEEALEELEEALEIVEENDSPLTEEIKKLLEEAIELVKKAIEELKE
# B20: GBRAP_160_4467 (protein)
# chain: SATVKALVEELKKDVEETLKLNKNESVEQIANAVEITIGSHLMEAYEEGKITDEQEDILIEAMDKVRELAKKEKNASPEEAIKKIKEIVEEAAEKILKAS
# B21: GBRAP_14_3878 (protein)
# chain: MEKIKKAIEETRNRLKEFFDQFDPEKAAKLKELVDEEFDKMLKTIEETGDIEKAIDDTKKSLLEKAEEILKDAPEEDKAAALAEISVELAELEEEIDELV
# B22: GBRAP_125_3064 (protein)
# chain: MKEEAIEDLLLLARALGLSEDEIAELRELAERGSIKNTLIAIALAEGREELAEALARLTEEETIEVLRRLAAELEANPELTPEEVLERLLALAREALAAR
# B23: GBRAP_160_4806 (protein)
# chain: MEKVKKLLKEAREDLLDTAEASADLPIADRARLLEAEGYTNILDFEEELGISDETADKLDAIVDAMVATLLANPDLSDEEVLALVEKAAEEMEKIVLEEA
# B24: GBRAP_166_4898 (protein)
# chain: ATAAAIARIRALAADVIANIASLTDEELLAAFVEMAEIAEEAGTTPEVRAALAAAFTAVLAAAEAAGRDPARVRSLALAAVGANEELLDAVEAALAAAAA
# B25: GBRAP_11_2828 (protein)
# chain: KKEKLKELAKQAEEVAKKLEELIKSGKPTQEELEELLKKAEELLKKVKEYGDEALAKLAEILVELIKEAIADPENQQEYLKQALAAARVLEGQFLLEAEE
# B26: GBRAP_150_3912 (protein)
# chain: DLEELLTVVDTLIDLLEAILDGHYDLLPHALKVAKLAVELAKEERKELLELAKKALEALEKAEKLLKEGGEEKEIKKEIEKALKLAEKLREEIEKLIKEE
# B27: GBRAP_26_5432 (protein)
# chain: VSELLDEMIDRLEEAADELLDPELAAAVKAEISTLALELEEKIEEENLSLEEIEKLLKEFIKELEEEMKELGVSEEKIKKLREIAEEEAKEFLKKLKELK
# B28: GBRAP_35_5552 (protein)
# chain: EEDKEILEMLKNTAEDLLLAVDDIPVEDLVTIAKSIAKTTLEIIKEEKENKEEVKELAEATLKMLEAVIKKAKKEGLPQEKIEELEKLKKEIEEALKKAL
# B29: GBRAP_64_6482 (protein)
# chain: DEEIEKLLEEAKKYLEKALELAKKENPEIAKKLKEALKLLEEAKKKNLEERADLVAEVADILNEILKDPSLTEELKELVSEALDKVSEALWELDEEIEKK
# Biological target: GABARAP, O95166
# Experiment: median log2 fold change of GCK-ALFA target abundance (FLAG IP / Myc IP barcode read proportion) (log2 ratio); each designed protein is fused to an ALFA-tag nanobody in HEK293 cells to bring the named protein to FLAG-tagged glucokinase (GCK); Myc marks an untargeted standard; higher = target protein stabilised (more abundant)
# Settings: target protein: 3xFLAG-MCP-GCK-ALFA reporter; HEK293 landing pad (RPLP)
# In short: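 Sequencing of reverse-transcribed, amplified circular RNA barcodes from anti-FLAG and anti-Myc immunoprecipitates provided the readout for an ALFA-nanobody-fused binder library recombined into HEK293 landing-pad cells. Those cells were induced with 2 μg mL^−1 doxycycline, transfected with a plasmid expressing a FLAG-tagged target and a Myc-tagged standard, and lysed after 48 h. Target abundance is the per-binder median log2 ratio of FLAG to Myc barcode read proportions. Only barcodes at a proportion of ≥10^−7 in both replicates and binders with ≥3 barcodes per replicate were kept, with a 10^−6 pseudocount added before the two replicates were pooled.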
# Chain of GABARAP, O95166 (O95166 whole entry, the tested form may be a part): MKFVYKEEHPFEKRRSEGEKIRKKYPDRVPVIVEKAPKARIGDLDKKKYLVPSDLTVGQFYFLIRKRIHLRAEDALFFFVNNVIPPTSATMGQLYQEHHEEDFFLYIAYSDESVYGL
row,Binder,median log2 fold change
1,B1,-0.16
2,B2,-0.0891
3,B3,0.182
4,B4,0.286
5,B5,0.0394
6,B6,0.0579
7,B7,0.19
8,B8,0.22
9,B9,0.213
10,B10,-0.0306
11,B11,0.174
12,B12,-0.0824
13,B13,-0.224
14,B14,-0.201
15,B15,0.135
16,B16,0.0854
17,B17,0.129
18,B18,0.416
19,B19,-1.21
20,B20,0.086
21,B21,0.0966
22,B22,-0.046
23,B23,-0.487
24,B24,-0.437
25,B25,-0.079
26,B26,-0.0793
27,B27,0.00447
28,B28,-0.041
29,B29,0.0184
